Among the data in PMC5892938 are binding signal (log2 fold change) values, retold here.

The list shows a part of the results. At the low end of the ranking the order means little.

This experiment has as its target GST-SBP-SLBP (stem-loop binding protein) (UniProt Q14493). The experiment can be described thus: targeted RNA Bind-n-Seq.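 Further: DESeq read counts versus GST-SBP nonspecific binding control pulldown.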 The conditions noted are these: RBNS binding buffer: 25 mM Tris pH 7.5, 150 mM KCl, 3 mM MgCl2, 0.1% Tween, 0.5 mg/mL BSA, 1 mM DTT; 27 nM protein, 750 pM RNA pool; temperature not stated; high values mean tight binding.
Turning to “GGUCACGUCUCAAUCAACUCUAUCCCAGGAGUUUCCUCCUGUUAACUCAACAGCUCGCAGUCAAG”, the binding signal (log2 fold change) turned out to be 0.217.
In the case of “GGUCACGUCUCAAUCAACUCUUCGCCAGGAGUUUUCUCCUGUAAUCUCAACAGCUCGCAGUCAAG”, the binding signal (log2 fold change) is 0.0861.
Under “GGUCACGUCUCAAUCAACUCACUAGAGGGGGGGAAAACCCCUUUGCCCUCAAACUCAACAGCUCGCAGUCAAG” stands -0.188; under “GGUCACGUCUCAAUCAACUCUUCCUCCAGGGAAAACCCUGGUUUAUUCAACAGCUCGCAGUCAAG”, 0.207.
Under “GGUCACGUCUCAAUCAACUCUAUCCCAGGAGUUUACUCCUGUUUUCUCAACAGCUCGCAGUCAAG” stands 0.399; under “GGUCACGUCUCAAUCAACUCUUCCUCCAGGGAAAUCCCUGGUUAUGUCAACAGCUCGCAGUCAAG”, -0.0986; under “GGUCACGUCUCAAUCAACUCAACUCCAGGAGUUUUCUCCUGCUUUCUCAACAGCUCGCAGUCAAG”, 0.0453.
Regarding “GGUCACGUCUCAAUCAACUCAGUCCCAGGAGUUUCCUCCUGUAAAUUCAACAGCUCGCAGUCAAG”, the binding signal (log2 fold change) is 0.371.
Under “GGUCACGUCUCAAUCAACUCUUCUCCAGGAGUUUUCUCCUGCAAUCUCAACAGCUCGCAGUCAAG” stands -0.0083; under “GGUCACGUCUCAAUCAACUCUUCCGCAGGAGUUUUCUCCUGGAUAUUCAACAGCUCGCAGUCAAG”, -0.122.
Under “GGUCACGUCUCAAUCAACUCUACUCCCAGGGAAAGCCCUGGCUUUCUCAACAGCUCGCAGUCAAG” stands -0.0203.
Under “GGUCACGUCUCAAUCAACUCAUCCCCAGGAGUUUUCUCCUGUUAAUUCAACAGCUCGCAGUCAAG” stands -0.191; under “GGUCACGUCUCAAUCAACUCAUCUCCCAGGGAAACCCCUGGUUUACUCAACAGCUCGCAGUCAAG”, -0.0938; under “GGUCACGUCUCAAUCAACUCAACUCCCAGGGAAAUCCCUGGUAUAUUCAACAGCUCGCAGUCAAG”, 0.00303.
Consider “GGUCACGUCUCAAUCAACUCAACUCCAGGAGUUUCCUCCUGUAAACUCAACAGCUCGCAGUCAAG”, for which the binding signal (log2 fold change) was determined as 0.0607.
Consider “GGUCACGUCUCAAUCAACUCAUUUUCCAGGGAAAUCCCUGGUUUACUCAACAGCUCGCAGUCAAG”, for which the binding signal (log2 fold change) is -0.0157.
As for “GGUCACGUCUCAAUCAACUCUCUAGAGGGGGGGAAAACCCCUUUACCCUCCCAUUCAACAGCUCGCAGUCAAG”, the binding signal (log2 fold change) worked out at 0.325.
Turning to “GGUCACGUCUCAAUCAACUCUUCUUCAGGAGUUUUCUCCUGUAUAUUCAACAGCUCGCAGUCAAG”, the binding signal (log2 fold change) was -0.0402.
With “GGUCACGUCUCAAUCAACUCAACUUCCAGGGAAACCCCUGGUAUAUUCAACAGCUCGCAGUCAAG”, the binding signal (log2 fold change) is -0.253.
Turning to “GGUCACGUCUCAAUCAACUCUUUUUCCAGGGAAAACCCUGGUUAUCUCAACAGCUCGCAGUCAAG”, the binding signal (log2 fold change) was 0.0662.
As to “GGUCACGUCUCAAUCAACUCUCCAGAGGGGGGGAAAACCCCUUUGCCCUCAACAUCAACAGCUCGCAGUCAAG”, the binding signal (log2 fold change) was found to be 0.226.
Under “GGUCACGUCUCAAUCAACUCAAUUUCCAGGGAAACCCCUGGCUUUCUCAACAGCUCGCAGUCAAG” stands -0.122; under “GGUCACGUCUCAAUCAACUCAUUCCCCAGGGAAAUCCCUGGCAUAUUCAACAGCUCGCAGUCAAG”, 0.192; under “GGUCACGUCUCAAUCAACUCAUGUCCAGGAGUUUCCUCCUGUAAUUUCAACAGCUCGCAGUCAAG”, 0.154.
Under “GGUCACGUCUCAAUCAACUCUAUUUCCAGGGAAACCCCUGGCAUUCUCAACAGCUCGCAGUCAAG” stands -0.198; under “GGUCACGUCUCAAUCAACUCAUUCCCCAGGGAAAGCCCUGGCUUACUCAACAGCUCGCAGUCAAG”, 0.105; under “GGUCACGUCUCAAUCAACUCAAUCUCCAGGGAAAGCCCUGGUUUAUUCAACAGCUCGCAGUCAAG”, 0.016.
Under “GGUCACGUCUCAAUCAACUCAUUCCCCAGGGAAACCCCUGGCAUAUUCAACAGCUCGCAGUCAAG” stands 0.129; under “GGUCACGUCUCAAUCAACUCCCCAGAGGGGGGGAAAACCCCUUUACCCUCCAAAUCAACAGCUCGCAGUCAAG”, -0.0735; under “GGUCACGUCUCAAUCAACUCUUUUUCAGGAGUUUACUCCUGCUUACUCAACAGCUCGCAGUCAAG”, -0.0555.
“GGUCACGUCUCAAUCAACUCUUUUCCAGGAGUUUUCUCCUGCAUUCUCAACAGCUCGCAGUCAAG”: the binding signal (log2 fold change) stood at 0.167.
In the case of “GGUCACGUCUCAAUCAACUCAUGUCCAGGAGUUUUCUCCUGCAAUCUCAACAGCUCGCAGUCAAG”, the binding signal (log2 fold change) amounted to 0.222.
With “GGUCACGUCUCAAUCAACUCUUCGCCAGGAGUUUUCUCCUGUUUUUUCAACAGCUCGCAGUCAAG”, the binding signal (log2 fold change) is 0.0509.
Next, “GGUCACGUCUCAAUCAACUCCUAAGAGGGGGGGAAAACCCCUUUGCCCUCGAAAUCAACAGCUCGCAGUCAAG”: -0.106; “GGUCACGUCUCAAUCAACUCAUUUCCAGGAGUUUCCUCCUGUAAUUUCAACAGCUCGCAGUCAAG”: 0.179; “GGUCACGUCUCAAUCAACUCAUCGCCAGGAGUUUACUCCUGCUAAUUCAACAGCUCGCAGUCAAG”: 0.301.
Take “GGUCACGUCUCAAUCAACUCAUCCCCCAGGGAAAACCCUGGUAAAUUCAACAGCUCGCAGUCAAG”: the binding signal (log2 fold change) was -0.00372.
In the case of “GGUCACGUCUCAAUCAACUCUUUUUCCAGGGAAAGCCCUGGUUAUUUCAACAGCUCGCAGUCAAG”, the binding signal (log2 fold change) is -0.118.
For the sequence “GGUCACGUCUCAAUCAACUCAAUCCCAGGAGUUUCCUCCUGCUUUCUCAACAGCUCGCAGUCAAG”, the binding signal (log2 fold change) is -0.0431.
On to “GGUCACGUCUCAAUCAACUCUAUUUCCAGGGAAAGCCCUGGCUUUUUCAACAGCUCGCAGUCAAG”, for which the binding signal (log2 fold change) is -0.148.
Under “GGUCACGUCUCAAUCAACUCAUCGUCAGGAGUUUUCUCCUGCAAUUUCAACAGCUCGCAGUCAAG” stands 0.0436.
Take “GGUCACGUCUCAAUCAACUCCUAAGAGGGGGGGAAAACCCCUUUGCCCUCAACAUCAACAGCUCGCAGUCAAG”: the binding signal (log2 fold change) is -0.418.
Next, “GGUCACGUCUCAAUCAACUCAUUAGAGGGGGGGAAAACCCCUUUGCCCUCCACUUCAACAGCUCGCAGUCAAG”: -0.0298; “GGUCACGUCUCAAUCAACUCAACUCCAGGAGUUUACUCCUGUAAAUUCAACAGCUCGCAGUCAAG”: 0.0441.
In the case of “GGUCACGUCUCAAUCAACUCAAUGGAGGGGGGGAAAACCCCUUUACCCUCAACAUCAACAGCUCGCAGUCAAG”, the binding signal (log2 fold change) came to 0.242.
Under “GGUCACGUCUCAAUCAACUCUAUCCCCAGGGAAAGCCCUGGUAAAUUCAACAGCUCGCAGUCAAG” stands 0.0796; under “GGUCACGUCUCAAUCAACUCAUCCUCCAGGGAAACCCCUGGUUAAUUCAACAGCUCGCAGUCAAG”, -0.0994.
On to “GGUCACGUCUCAAUCAACUCUACUUCCAGGGAAAACCCUGGUUAACUCAACAGCUCGCAGUCAAG”, for which the binding signal (log2 fold change) was -0.254.
For “GGUCACGUCUCAAUCAACUCAUUCCCAGGAGUUUCCUCCUGUAUUCUCAACAGCUCGCAGUCAAG”, the binding signal (log2 fold change) is 0.0837.
With “GGUCACGUCUCAAUCAACUCUUCCCCAGGAGUUUCCUCCUGUAAACUCAACAGCUCGCAGUCAAG”, the binding signal (log2 fold change) was 0.0453.
Consider “GGUCACGUCUCAAUCAACUCUUAAGAGGGGGGGAAAACCCCUUUGCCCUCCGUAUCAACAGCUCGCAGUCAAG”, for which the binding signal (log2 fold change) turned out to be 0.223.
Next, “GGUCACGUCUCAAUCAACUCUAUGGCAGGAGUUUUCUCCUGGAAUCUCAACAGCUCGCAGUCAAG”: 0.0311.
Next, “GGUCACGUCUCAAUCAACUCUUUUUCAGGAGUUUUCUCCUGCUAACUCAACAGCUCGCAGUCAAG”: 0.159; “GGUCACGUCUCAAUCAACUCUCAAGAGGGGGGGAAAACCCCUUUACCCUCAACAUCAACAGCUCGCAGUCAAG”: -0.183.
As to “GGUCACGUCUCAAUCAACUCAAUCUCAGGAGUUUCCUCCUGUUUUUUCAACAGCUCGCAGUCAAG”, the binding signal (log2 fold change) is -0.0116.
In the case of “GGUCACGUCUCAAUCAACUCAACUUCAGGAGUUUCCUCCUGCAAAUUCAACAGCUCGCAGUCAAG”, the binding signal (log2 fold change) was -0.00568.
As for “GGUCACGUCUCAAUCAACUCUAUCUCAGGAGUUUACUCCUGCAAUCUCAACAGCUCGCAGUCAAG”, the binding signal (log2 fold change) is -0.157.
On to “GGUCACGUCUCAAUCAACUCCCCAGAGGGGGGGAAAACCCCUUUACCCUCAUCCUCAACAGCUCGCAGUCAAG”, for which the binding signal (log2 fold change) stood at 0.566.
With “GGUCACGUCUCAAUCAACUCAUCUUCAGGAGUUUCCUCCUGUUUUCUCAACAGCUCGCAGUCAAG”, the binding signal (log2 fold change) was -0.0366.
As for “GGUCACGUCUCAAUCAACUCAUUUCCAGGAGUUUCCUCCUGUUUUUUCAACAGCUCGCAGUCAAG”, the binding signal (log2 fold change) came to 0.0382.
For the sequence “GGUCACGUCUCAAUCAACUCCGCAGAGGGGGGGAAAACCCCUUUACCCUCAAUUUCAACAGCUCGCAGUCAAG”, the binding signal (log2 fold change) was -0.113.
Next, “GGUCACGUCUCAAUCAACUCUUCCUCCAGGGAAAGCCCUGGUUUACUCAACAGCUCGCAGUCAAG”: -0.122; “GGUCACGUCUCAAUCAACUCUUUUCCAGGAGUUUACUCCUGUAUUCUCAACAGCUCGCAGUCAAG”: -0.0402.
On to “GGUCACGUCUCAAUCAACUCAAUUUCAGGAGUUUCCUCCUGCUUAGUCAACAGCUCGCAGUCAAG”, for which the binding signal (log2 fold change) is 0.0515.
In the case of “GGUCACGUCUCAAUCAACUCGUCUUCAGGAGUUUUCUCCUGUAUUUUCAACAGCUCGCAGUCAAG”, the binding signal (log2 fold change) was -0.0544.
Regarding “GGUCACGUCUCAAUCAACUCUAUCUCAGGAGUUUCCUCCUGUUAAUUCAACAGCUCGCAGUCAAG”, the binding signal (log2 fold change) was determined as 0.0954.
As for “GGUCACGUCUCAAUCAACUCAACUCCCAGGGAAAUCCCUGGCAAACUCAACAGCUCGCAGUCAAG”, the binding signal (log2 fold change) stood at 0.272.
For the sequence “GGUCACGUCUCAAUCAACUCUACUUCCAGGGAAAGCCCUGGCUAUUUCAACAGCUCGCAGUCAAG”, the binding signal (log2 fold change) was -0.0124.
As to “GGUCACGUCUCAAUCAACUCUCCAGAGGGGGGGAAAACCCCUUUACCCUCCAUAUCAACAGCUCGCAGUCAAG”, the binding signal (log2 fold change) is -0.00132.
With “GGUCACGUCUCAAUCAACUCAUUUUCAGGAGUUUACUCCUGUAGUCUCAACAGCUCGCAGUCAAG”, the binding signal (log2 fold change) was -0.0516.
As to “GGUCACGUCUCAAUCAACUCUUUCUCAGGAGUUUCCUCCUGUAAUUUCAACAGCUCGCAGUCAAG”, the binding signal (log2 fold change) was -0.0423.
For the sequence “GGUCACGUCUCAAUCAACUCAUCUCCAGGAGUUUGCUCCUGCUUAUUCAACAGCUCGCAGUCAAG”, the binding signal (log2 fold change) was 0.188.
Regarding “GGUCACGUCUCAAUCAACUCACUAGAGGGGGGGAAAACCCCUUUACCCUCCGUUUCAACAGCUCGCAGUCAAG”, the binding signal (log2 fold change) is -0.0558.
Under “GGUCACGUCUCAAUCAACUCUAGUCCAGGAGUUUACUCCUGCUUUUUCAACAGCUCGCAGUCAAG” stands -0.295.
